Assay results taken from the supplement of paper PMC12217912.
The list shows a part of the results. Sequences were assembled here from the parent chain. Inactive controls read about 0.05.

B1: TEV protease; numbered along this chain (parent)
chain: MGESLFKGPRDYNPISSSICHLTNESDGHTTSLYGIGFGPFIITNKHLFRRNNGTLVVQSLHGVFKVKDTTTLQQHLVDGRDMIIIRMPKDFPPFPQKLKFREPQREERICLVTTNFQTKSMSSMVSDTSCTFPSGDGIFWKHWIQTKDGQCGSPLVSTRDGFIVGIHSASNFTNTNNYFTSVPKNFMELLTNQEAQQWVSGWRLNADSVLWGGHKVFMVKPEEPFQPVKEATQL

Variants of: B1
Test: raw area under fraction-flipped curve 0-4 h after induction (AUC4h, not background-subtracted), DNA-recorder readout of cleavage of the substrate (dimensionless); higher = more cleavage of the substrate by the protease variant
Conditions: temperature: 34 °C; time window: 0-4 h after rhamnose induction
Protocol: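 In vivo DNA recorder in E. coli TOP10(DE3) ΔrhaA at 34 °C. Each TEVp single-site mutant (parent TEVp 0) is paired with a single-site variant of the 7-mer TEVs (canonical ENLYFQ|S). The substrate sits between flexible linkers in a Bxb1-sfGFP-TEVs-SsrA fusion, so cleavage stabilises Bxb1 and speeds flipping of a recombination array, read by NGS. The value is the raw area under the fraction-flipped curve over 0-4 h after rhamnose induction (AUC4h), with ≥20 reads per time point. It is not background-subtracted; inactive controls average about 0.047.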
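Further: Bxb1 expression induced with 0.2% (w/v) L-rhamnose at OD600 near 0.5, cultures sampled hourly, flipped fraction per protease–substrate barcode pair counted by paired-end Illumina sequencing.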

Row | Variant | area with substrate ENLYFCS | area with substrate ENLYFES | area with substrate ENLYFFS | area with substrate ENLYFIS | area with substrate ENLYFKS | area with substrate ENLYFLS | area with substrate ENLYFMS | area with substrate ENLYFNS | area with substrate ENLYFPS | area with substrate ENLYFRS | area with substrate ENLYFSS | area with substrate ENLYFTS | area with substrate ENLYFVS | area with substrate ENLYFWS | area with substrate ENLYFYS | area with substrate ENLYFDS | area with substrate ENLYFHS | area with substrate ENLYFGS
1 | MGESLFKGPRDYNPISSSICHLTNESDGHTTSLYGIGFGPFIITNKHLFRRNNGTLVVQSLHGVFKVKDTTTLQQHLVDGRDMIIIRMPKDFPPFPQKLKFREPQREERICLVTTNFQTKSMSSMVSDTSCTFPSGDGIFWKHWIQTKDGQCGSPLVSTRDGFIVGIHSASNFTNTNNYFTSAPKNFMELLTNQEAQQWVSGWRLNADSVLWGGHKVFMVKPEEPFQPVKEATQL [V183A] | 0.0533 | 0.0566 | 0.0502 | 0.0505 | 0.0629 | 0.0631 | 0.0621 | 0.0661 | 0.0681 | 0.0612 | 0.0542 | 0.0371 | 0.0602 | 0.0649 | 0.0526 | – | – | –
2 | MGESLFKGPRDYNPISSSICHLTNESDGHTTSLYGIGFGPFIITNKHLFRRNNGTLVVQSLHGVFKVKDTTTLQQHLVDGRDMIIIRMPKDFPPFPQKLKFREPQREERICLVTTNFQTKSMSSMVSDTSCTFPSGDGIFWKHWIQTKDGQCGSPLVSTRDGFIVGIHSASNFTNTNNYFTSVPKNFNELLTNQEAQQWVSGWRLNADSVLWGGHKVFMVKPEEPFQPVKEATQL [M188N] | 0.0476 | 0.0632 | 0.0675 | 0.0693 | – | – | 0.0716 | 0.0652 | 0.0632 | 0.0499 | – | 0.0694 | – | 0.0346 | 0.0561 | 0.0652 | – | –
3 | MGESLFKGPRDYNPISSSICHLTNESDGHTTSLYGIGFGPFIITNKHLFRRNNGTLVVQSLHGVFKVKDTTTLQQHLVDGRDMIIIRMPKDFPPFPQKLKFREPQREERICLVTTNFQTKSMSSMVSDTSCTFPSGDGIFWKHWIQTKDGQCGSPLVSTRDGFIVGIHSASNFTNTNNYFTSVPKNFMCLLTNQEAQQWVSGWRLNADSVLWGGHKVFMVKPEEPFQPVKEATQL [E189C] | 0.0611 | 0.0669 | 0.0619 | 0.0653 | – | – | 0.0558 | 0.0639 | 0.0734 | 0.0626 | 0.0671 | 0.0565 | 0.0609 | 0.0568 | – | – | 0.0481 | –
4 | MGESLFKGPRDYNPISSSICHLTNESDGHTTSLYGIGFGPFIITNKHLFRRNNGTLVVQSLHGVFKVKDTTTLQQHLVDGRDMIIIRMPKDFPPFPQKLKFREPQREERICLVTTNFQTKSMSSMVSDTSCTFPSGDGIFWKHWIQTKDGQCGSPLVSTRDGFIVGIHSASNFTNTNNYFTSVPKNFMELPTNQEAQQWVSGWRLNADSVLWGGHKVFMVKPEEPFQPVKEATQL [L191P] | 0.0635 | 0.0443 | 0.0457 | 0.0636 | 0.0501 | – | 0.0454 | – | – | 0.0533 | – | – | 0.0557 | – | – | – | – | –
5 | MGESLFKGPRDYNPISSSICHLTNESDGHTTSLYGIGFGPFIITNKHLFRRNNGTLVVQSLHGVFKVKDTTTLQQHLVDGRDMIIIRMPKDFPPFPQKLKFREPQREERICLVTTNFQTKSMSSMVSDTSCTFPSGDGIFWKHWIQTKDGQCGSPLVSTRDGFIVGIHSASNFTNTNNYFTSVPKNFMELLTNHEAQQWVSGWRLNADSVLWGGHKVFMVKPEEPFQPVKEATQL [Q194H] | 0.0675 | – | 0.0788 | 0.054 | 0.0594 | – | 0.0689 | 0.0681 | 0.0519 | 0.0618 | 0.0627 | 0.0557 | 0.0586 | 0.0068 | 0.0657 | – | 0.0207 | –
6 | MGESLFKGPRDYNPISSSICHLTNESDGHTTSLYGIGFGPFIITNKHLFRRNNGTLVVQSLHGVFKVKDTTTLQQHLVDGRDMIIIRMPKDFPPFPQKLKFREPQREERICLVTTNFQTKSMSSMVSDTSCTFPSGDGIFWKHWIQTKDGQCGSPLVSTRDGFIVGIHSASNFTNTNNYFTSVPKNFMELLTNQAAQQWVSGWRLNADSVLWGGHKVFMVKPEEPFQPVKEATQL [E195A] | 0.0455 | – | 0.0696 | 0.0607 | 0.0664 | 0.061 | 0.0545 | 0.057 | 0.0726 | – | – | 0.0616 | – | 0.0628 | 0.0539 | – | 0.0566 | 0.0582
7 | MGESLFKGPRDYNPISSSICHLTNESDGHTTSLYGIGFGPFIITNKHLFRRNNGTLVVQSLHGVFKVKDTTTLQQHLVDGRDMIIIRMPKDFPPFPQKLKFREPQREERICLVTTNFQTKSMSSMVSDTSCTFPSGDGIFWKHWIQTKDGQCGSPLVSTRDGFIVGIHSASNFTNTNNYFTSVPKNFMELLTNQEDQQWVSGWRLNADSVLWGGHKVFMVKPEEPFQPVKEATQL [A196D] | 0.0243 | 0.0566 | 0.0671 | 0.0558 | 0.0669 | – | 0.07 | 0.0611 | 0.0543 | 0.0506 | – | 0.0569 | 0.0446 | 0.0505 | 0.0565 | – | 0.062 | –
8 | MGESLFKGPRDYNPISSSICHLTNESDGHTTSLYGIGFGPFIITNKHLFRRNNGTLVVQSLHGVFKVKDTTTLQQHLVDGRDMIIIRMPKDFPPFPQKLKFREPQREERICLVTTNFQTKSMSSMVSDTSCTFPSGDGIFWKHWIQTKDGQCGSPLVSTRDGFIVGIHSASNFTNTNNYFTSVPKNFMELLTNQEFQQWVSGWRLNADSVLWGGHKVFMVKPEEPFQPVKEATQL [A196F] | 0.0554 | 0.0607 | 0.0666 | 0.0392 | – | – | 0.0691 | 0.0783 | – | 0.0819 | – | – | 0.0913 | 0.0715 | – | – | – | 0.0482
9 | MGESLFKGPRDYNPISSSICHLTNESDGHTTSLYGIGFGPFIITNKHLFRRNNGTLVVQSLHGVFKVKDTTTLQQHLVDGRDMIIIRMPKDFPPFPQKLKFREPQREERICLVTTNFQTKSMSSMVSDTSCTFPSGDGIFWKHWIQTKDGQCGSPLVSTRDGFIVGIHSASNFTNTNNYFTSVPKNFMELLTNQEWQQWVSGWRLNADSVLWGGHKVFMVKPEEPFQPVKEATQL [A196W] | 0.0631 | 0.0595 | – | 0.0585 | 0.065 | 0.0687 | 0.0727 | – | – | 0.0378 | – | 0.034 | – | – | 0.065 | 0.0592 | – | –
